Test results reported in the supplement of paper PMC4604168 (melanoma cell lines).
The other results are listed elsewhere or left out. Single values are uncertain, as repeats are few or missing.

System: UACC62
Experiment: cell count relative to DMSO control; melanoma cells; higher = more viable cells
Settings: library dose: standard library concentration; 72 h
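Note: cells treated in 1,536-well plates, then fixed and DAPI-stained, with nuclei counted from automated high-throughput microscope images.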

Q: For Clc1ccc(Nc2nnc(Cc3ccncc3)c3ccccc23)cc1 [vatalanib] + COc1ccc(-c2ccc3c(N4CCOCC4)nc(N4C[C@@H](C)O[C@@H](C)C4)nc3n2)cc1CO [KU0063794] (first compound 10 µM, partner dose 0.1 µM), which cell count is on record?
A: 92.3%

Q: With Clc1ccc(Nc2nnc(Cc3ccncc3)c3ccccc23)cc1 [vatalanib] + CC(C)CCN1c2nc(Nc3cc(F)c(O)c(F)c3)ncc2N(C)C(=O)C1C [BID1870] (first compound 10 µM, partner dose 1 µM) as the molecule, how does the cell count read?
A: 95.5%

Q: Which cell count does the source give for OCc1c[nH]c2ccccc12 [Indole-3-carbinol] + O=C(Nc1ccccc1)c1cc([N+](=O)[O-])ccc1Cl [GW9662] (first compound 4 µM, partner dose 10 µM) here?
A: 70.2%

Q: Clc1ccc(Nc2nnc(Cc3ccncc3)c3ccccc23)cc1 [vatalanib] + Oc1nc(-c2ccc(C(F)(F)F)cc2)nc2c1CSCC2 [XAV939] (first compound 10 µM, partner dose 10 µM) was tested. Which cell count did it give?
A: 78.8%

Q: How did the cell count turn out when Clc1ccc(Nc2nnc(Cc3ccncc3)c3ccccc23)cc1 [vatalanib] + O=C1NC(=O)/C(=C/c2ccc(-c3ccc(F)cc3O)o2)S1 [AS252424] (first compound 10 µM, partner dose 5 µM) was run?
A: 129%

Q: How did the cell count turn out when Nc1cccc2c1CN(C1CCC(=O)NC1=O)C2=O (stereo unspecified) [lenalidomide] + COc1cc2c(Oc3ccc4[nH]c(C)cc4c3F)ncnc2cc1OCCCN1CCCC1 [cediranib] (first compound 5 µM, partner dose 2 µM) was run?
A: 72.9%

Q: Which cell count does the source give for Clc1ccc(Nc2nnc(Cc3ccncc3)c3ccccc23)cc1 [vatalanib] + COc1ccc(COc2ccc(Cc3cnc(N)nc3N)cc2OC)cc1 [GW2580] (first compound 10 µM, partner dose 5 µM) here?
A: 93%

Q: COCC[n+]1c2c(n(Cc3cnccn3)c1C)C(=O)c1ccccc1C2=O + CN(C)S(=O)(=O)c1ccc2c(c1)/C(=C/c1cc3c([nH]1)CCCC3)C(=O)N2 [SU6656] (first compound 0.002 µM, partner dose 2 µM) was tested. Which cell count did it give?
A: 72.2%

Q: Which cell count does the source give for Clc1ccc(Nc2nnc(Cc3ccncc3)c3ccccc23)cc1 [vatalanib] + Cn1cc(/C=C2\C(=O)Nc3cccnc32)c2ccccc21 [GW441756] (first compound 10 µM, partner dose 2 µM) here?
A: 72.9%

System: WM115
Experiment: as above
Settings: library dose: standard library concentration; 72 h

Q: Clc1ccc(Nc2nnc(Cc3ccncc3)c3ccccc23)cc1 [vatalanib] + O=S(=O)(c1ccccc1)N(CC(F)(F)F)c1ccc(C(O)(C(F)(F)F)C(F)(F)F)cc1 [T0901317] (first compound 10 µM, partner dose 7 µM) was tested. Which cell count did it give?
A: 78.3%

Q: How did the cell count turn out when Clc1ccc(Nc2nnc(Cc3ccncc3)c3ccccc23)cc1 [vatalanib] + Oc1cc(-c2nc(-c3ccccc3)[nH]c2-c2ccncc2)ccc1Cl [L779450] (first compound 10 µM, partner dose 1 µM) was run?
A: 52.9%

Q: How did the cell count turn out when OCc1c[nH]c2ccccc12 [Indole-3-carbinol] + O=S(=O)(c1ccccc1)N(CC(F)(F)F)c1ccc(C(O)(C(F)(F)F)C(F)(F)F)cc1 [T0901317] (first compound 4 µM, partner dose 7 µM) was run?
A: 97.5%

Q: Clc1ccc(Nc2nnc(Cc3ccncc3)c3ccccc23)cc1 [vatalanib] + COC(=O)c1sccc1S(=O)(=O)Nc1ccc(Nc2ccccc2)cc1OC [GSK0660] (first compound 10 µM, partner dose 5 µM) was tested. Which cell count did it give?
A: 82.2%

Q: Which cell count does the source give for OCc1c[nH]c2ccccc12 [Indole-3-carbinol] + NCC(=O)Nc1ccc(-n2nc(C(F)(F)F)cc2-c2ccc3c(ccc4ccccc43)c2)cc1 [OSU03012] (first compound 4 µM, partner dose 5 µM) here?
A: 91.4%

Q: Clc1ccc(Nc2nnc(Cc3ccncc3)c3ccccc23)cc1 [vatalanib] + CCN(CC)CCCCNc1ncc2cc(-c3cc(OC)cc(OC)c3)c(NC(=O)NC(C)(C)C)nc2n1 [PD173074] (first compound 10 µM, partner dose 0.5 µM) was tested. Which cell count did it give?
A: 77.3%

Q: OCc1c[nH]c2ccccc12 [Indole-3-carbinol] + CC(C)CCN1c2nc(Nc3cc(F)c(O)c(F)c3)ncc2N(C)C(=O)C1C [BID1870] (first compound 4 µM, partner dose 1 µM) was tested. Which cell count did it give?
A: 93.8%

Q: How did the cell count turn out when OCc1c[nH]c2ccccc12 [Indole-3-carbinol] + O=C(O)C(=O)Nc1sc2c(c1C(=O)O)CCNC2 [TCS401] (first compound 4 µM, partner dose 8.33333 µM) was run?
A: 87.2%

Q: How did the cell count turn out when Clc1ccc(Nc2nnc(Cc3ccncc3)c3ccccc23)cc1 [vatalanib] + COc1cc(N2CCC(N3CCN(C)CC3)CC2)ccc1Nc1ncc(Cl)c(Nc2ccccc2S(=O)(=O)C(C)C)n1 [NVP-TAE684] (first compound 10 µM, partner dose 0.4 µM) was run?
A: 81.9%

Q: With OCc1c[nH]c2ccccc12 [Indole-3-carbinol] + COc1ccc2c(c1)CCC1C2CCC2(C)C(NCCCCCCN3C(=O)C=CC3=O)CCC12 [U73122] (first compound 4 µM, partner dose 2 µM) as the molecule, how does the cell count read?
A: 61.5%

Q: Which cell count does the source give for OCc1c[nH]c2ccccc12 [Indole-3-carbinol] + N#Cc1c(O)c2c(-c3ccc(-c4ccccc4O)cc3)csc2[nH]c1=O [A769662] (first compound 4 µM, partner dose 10 µM) here?
A: 113%

Q: With OCc1c[nH]c2ccccc12 [Indole-3-carbinol] + CCN(CC)CCCCNc1ncc2cc(-c3cc(OC)cc(OC)c3)c(NC(=O)NC(C)(C)C)nc2n1 [PD173074] (first compound 4 µM, partner dose 0.5 µM) as the molecule, how does the cell count read?
A: 108%

Q: For OCc1c[nH]c2ccccc12 [Indole-3-carbinol] + Oc1cc(-c2nc(-c3ccccc3)[nH]c2-c2ccncc2)ccc1Cl [L779450] (first compound 4 µM, partner dose 1 µM), which cell count is on record?
A: 45.8%

Q: How did the cell count turn out when Clc1ccc(Nc2nnc(Cc3ccncc3)c3ccccc23)cc1 [vatalanib] + O=c1cc(-c2cccc3c2Sc2ccccc2S3)oc(N2CCOCC2)c1 [KU55933] (first compound 10 µM, partner dose 5 µM) was run?
A: 72%

Q: With OCc1c[nH]c2ccccc12 [Indole-3-carbinol] + O=C1NC(=O)/C(=C/c2ccc(-c3ccc(F)cc3O)o2)S1 [AS252424] (first compound 4 µM, partner dose 5 µM) as the molecule, how does the cell count read?
A: 92.3%

Q: OCc1c[nH]c2ccccc12 [Indole-3-carbinol] + CCc1ccc(CCOc2ccc(CC3SC(=O)NC3=O)cc2)nc1 [pioglitazone] (first compound 4 µM, partner dose 10 µM) was tested. Which cell count did it give?
A: 75.9%

Q: How did the cell count turn out when OCc1c[nH]c2ccccc12 [Indole-3-carbinol] + COc1ccc(-c2ccc3c(N4CCOCC4)nc(N4C[C@@H](C)O[C@@H](C)C4)nc3n2)cc1CO [KU0063794] (first compound 4 µM, partner dose 0.1 µM) was run?
A: 84.6%

Q: OCc1c[nH]c2ccccc12 [Indole-3-carbinol] + CCCCCCCCCCCC1=C(O)C(=O)C=C(O)C1=O [Embelin] (first compound 4 µM, partner dose 6 µM) was tested. Which cell count did it give?
A: 85.2%

Q: With Clc1ccc(Nc2nnc(Cc3ccncc3)c3ccccc23)cc1 [vatalanib] + CCCCCCCCCCCC1=C(O)C(=O)C=C(O)C1=O [Embelin] (first compound 10 µM, partner dose 6 µM) as the molecule, how does the cell count read?
A: 94.5%

Q: How did the cell count turn out when Clc1ccc(Nc2nnc(Cc3ccncc3)c3ccccc23)cc1 [vatalanib] + c1cc(-c2cnn3cc(-c4ccc(OCCN5CCCCC5)cc4)cnc23)ccn1 [Dorsomorphin] (first compound 10 µM, partner dose 2 µM) was run?
A: 54%

Q: Clc1ccc(Nc2nnc(Cc3ccncc3)c3ccccc23)cc1 [vatalanib] + CCc1ccc(CCOc2ccc(CC3SC(=O)NC3=O)cc2)nc1 [pioglitazone] (first compound 10 µM, partner dose 10 µM) was tested. Which cell count did it give?
A: 81.9%

Q: With OCc1c[nH]c2ccccc12 [Indole-3-carbinol] + COC(=O)c1sccc1S(=O)(=O)Nc1ccc(Nc2ccccc2)cc1OC [GSK0660] (first compound 4 µM, partner dose 5 µM) as the molecule, how does the cell count read?
A: 110%

Q: Clc1ccc(Nc2nnc(Cc3ccncc3)c3ccccc23)cc1 [vatalanib] + O=C(Nc1ccccc1)c1cc([N+](=O)[O-])ccc1Cl [GW9662] (first compound 10 µM, partner dose 10 µM) was tested. Which cell count did it give?
A: 63.7%

Q: With OCc1c[nH]c2ccccc12 [Indole-3-carbinol] + c1cc(-c2cnn3cc(-c4ccc(OCCN5CCCCC5)cc4)cnc23)ccn1 [Dorsomorphin] (first compound 4 µM, partner dose 2 µM) as the molecule, how does the cell count read?
A: 85.7%

Q: For OCc1c[nH]c2ccccc12 [Indole-3-carbinol] + O=c1cc(-c2cccc3c2Sc2ccccc2S3)oc(N2CCOCC2)c1 [KU55933] (first compound 4 µM, partner dose 5 µM), which cell count is on record?
A: 92.2%

Q: How did the cell count turn out when OCc1c[nH]c2ccccc12 [Indole-3-carbinol] + COc1cc2ncnc(Nc3ccc(Oc4ccccc4)cc3)c2cc1OC [SrcI1] (first compound 4 µM, partner dose 10 µM) was run?
A: 63.1%

Q: Which cell count does the source give for OCc1c[nH]c2ccccc12 [Indole-3-carbinol] + Cn1cc(/C=C2\C(=O)Nc3cccnc32)c2ccccc21 [GW441756] (first compound 4 µM, partner dose 2 µM) here?
A: 111%
